Reference: the supplement of paper PMC11417369
The other results are listed elsewhere or left out.

tested on: PfSIP2 AP2 domain 1 (GST-tagged); experiment: gcPBM binding intensity (ln(normalized median fluorescence intensity)); higher = stronger DNA binding
In short: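 In this array assay, P. falciparum DNA-binding domains with a GST tag, expressed in E. coli, were applied for 1 h to primer-extended double-stranded 36-bp intergenic genomic probes and negative controls on an Agilent 4 × 180k array. Bound protein was visualised with Alexa488 anti-GST antibody at 488 nm. Binding intensity is the highest Masliner-normalised natural-log median intensity across replicate spots of either probe orientation.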

Sequence	gcPBM binding intensity (ln)
AAATAAATATAAATAAATAAATAAATAAATATATAT [CACACA_negctrl_site827]	6.93
TTAATAATTCTTAAAAGTACATAACTTTTTTTTTTT [XGTACX_site751]	6.85
GCTCTTTTGTTATGGTGTACCCTCCATGTAACATAA [XGTACX_site91]	7.45
TCTTACGGATTCATTGTGCACATATATATATATATA [GTGCAC_site9896]	9.46
TTTTAAAAACGGCATGCATGTAATACATGGAAGGAA [TGCATGCA_site480]	7.46
TATATATAATTCATACATTTTAAATATATTTATTTA [CACACA_negctrl_site840]	7.01
TTTAAAAAAATTCATGCACACGAAATAAAAAGCACC [CACACA_site8214]	8.86
TCTTTTATGCACATTGAGTAAACAACATATTTTTAA [TGCATGCA_negctrl_site561]	7.39
TTTTTTATTAAAAGTAGTACACATGAAAAAAAAAAA [XGTACX_site5524]	7.66
ATTTTTATAGAAATATGTACACAATATGTATATATT [XGTACX_site7993]	6.95
TTAATATAGATATAACCACACACATACATCTAATTC [CACACA_site8519]	6.92
TAGAAGTACATATATGCATGTTAATTTTAAAGGAGG [TGCATGCA_site538]	7.14
ATATATATATAGTGTTGTACATTTAAAAATAATATA [XGTACX_site2627]	9.21
ATTAAAAATATTAGTTGTACTTTATATTTTCATATA [XGTACX_site3614]	6.87
AATCAAAATAATTTAACACACAATTTTAATACTGTT [CACACA_site2375]	6.82
AAATTCCATGAAAAAAGTACTAATTAATACAATATA [XGTACX_site2877]	6.96
TTTAAGAATTAACGGGGTACAATTCTTAAATATATA [XGTACX_site669]	6.88
ATGTGATAGAAGTACACACACATATGTATTTATAAT [CACACA_site5075]	7.02
TGTTTTATTTTTTTTGTGCACATACCTTTAGCATCA [GTGCAC_site9812]	8.95

Sequence	gcPBM binding intensity (ln)
TAATTATAATAAATATTCATATGTTCAAATATATAT [CACACA_negctrl_site151]	6.96
TATATATTTTTTTCAAGTACACATTACAGTTACATA [XGTACX_site2713]	7.01
ATTCGATGTTTTAAATGTACACAAATTGAAGGAATA [XGTACX_site409]	7.6
ATGTTTTCTCTTTCGGTGCATTGTTTTCTATACTTT [GTGCAC_site9483]	9.6
TTTATATAATTTTAATGTACATATATATATATAAAT [XGTACX_site4381]	7.43
TTTTCTTACATGAGTGTACACACTTTTTTTCAGAAA [CACACA_site70]	7.18
TTCTTCACATACACTTCAAAATTTGATAAAACATTA [CACACA_negctrl_site472]	7.68
TAATAAATAAGATTCACACATATTTAAATGTTATGC [CACACA_site5275]	6.65
TATCTATAATATTATACACACATATATGCATAATAT [CACACA_site6175]	7.34
TTATTTGAATAATGTTTGCACTTAGAGTATTTTATA	7.48
ATATATCATAAATAAATGAAAATATTTTCTATGTGT [CACACA_negctrl_site689]	7.07
GTATATAATTTTTTTTTTTTTTTCATTCTTTTCCTT [CACACA_negctrl_site1780]	6.89
ATGAATTGACCATATTGTACATATTTAGGACTTACC [XGTACX_site8072]	7.16
AAATATATGAAATATACACACTTCTTTGGTATTATT [CACACA_site4414]	6.69
CAGAAATATTAATGCTGTACGGAATACATATATTTT [XGTACX_site539]	6.83
ATTTTAATGGGACATGCATGGGACAAACTACAAATT [TGCATGCA_site853]	7.08
AGAATATTTATATGATGTACTTATATATATATATAT [XGTACX_site3021]	9.17
TATATATTAAAACACACACACATATATATATATATA [CACACA_site3787]	9.06
TTTTTTCTTTTCTTTTTATTTTATTTTGTTTTATTT [CACACA_negctrl_site799]	6.69

Sequence	gcPBM binding intensity (ln)
AATAAAAACTACATGTGTACATAATAAATACATATA [XGTACX_site755]	7.09
TAAAAATATTTAAACTGTACTATTTTATGTTAAATG [XGTACX_site6620]	7
ATAATCCAAAAAAATCAAATAAAATAAAATAAAATA [CACACA_negctrl_site449]	6.75
TGAACCAGATTTAGAAGTACTAAATATTACATACAT [XGTACX_site2437]	6.97
TGTTGCAAAACAAAAAAAAAAAAAAAAAATAATAAT [CACACA_negctrl_site1642]	6.76
TATATAAATATTCGTAGTACAATACAATTATAAGTA [XGTACX_site3068]	6.99
TTTATAATTTTAAAATGTACAAGGAGGAAAAATTCT [XGTACX_site422]	7.09
TTATATTTTATATTTACACACATTTATATTTATAAA [CACACA_site203]	6.94
ATAAACATCGGTAGTACACACATTCATGTACTTGAT [CACACA_site3037]	7.32
AATTTGTAAAATAAGGTGCGTATAAAAAATTATATT [GTGCAC_site9676]	9.96
ATTTAATAAAAAAAAAAAATATTGTAGAATATGATG [GTGCAC_negctrl_site195]	6.82
CAAATGGTAAATGAAAGTACAAATTGTTTTGATTAA [XGTACX_site1536]	6.74
ATATACATATTCTTGTGTACATAAAAATTTATATAT [XGTACX_site8726]	7.16
ATATAAATCATTGGTTGTACATATAATATTTTATAA [XGTACX_site925]	7.08
TATATATCTATATATTGTACATATGTTTGTATGTGT [XGTACX_site7420]	7.26
TATTTTTACCCATAAAGTACACATAAATATAAAATA [XGTACX_site177]	7.36
TAATATTTCTTATTTTATATTTGTATATGAATGGAT [XGTACX_negctrl_site278]	6.88
GCTCAATGTTTTACATGTACATATATATATATATAT [XGTACX_site8210]	9.11
